In paper PMC9068801:
Results are given in words; binding and its absence hold for the method and conditions named. In cells and extracts the contact can be indirect. Some results given as binding are weak or reduced against the parent protein; the word gives no strength. Tags and fused reporters may be left off the sequences shown. Values belong to the binder of their own block, whether it stands above or below them.

Chains of the proteins cited; added tags and fusions are not shown.
UniProt Q39026: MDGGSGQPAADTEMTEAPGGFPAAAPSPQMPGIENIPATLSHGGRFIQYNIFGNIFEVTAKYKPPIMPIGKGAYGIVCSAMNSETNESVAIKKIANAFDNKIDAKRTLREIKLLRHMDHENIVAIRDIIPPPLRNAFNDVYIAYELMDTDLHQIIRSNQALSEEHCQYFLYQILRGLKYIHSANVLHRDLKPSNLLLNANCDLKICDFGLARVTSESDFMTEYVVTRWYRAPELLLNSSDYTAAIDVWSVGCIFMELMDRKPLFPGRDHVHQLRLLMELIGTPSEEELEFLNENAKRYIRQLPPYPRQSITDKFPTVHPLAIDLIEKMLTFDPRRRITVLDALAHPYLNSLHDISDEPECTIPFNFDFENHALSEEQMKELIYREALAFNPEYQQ

Experiments:
[1] = target: T1, SCRM-cYFP (Arabidopsis thaliana) (UniProt Q9LSE2); test: split reporter; BiFC with nYFP and cYFP fusions transiently co-expressed in N. benthamiana leaf epidermal cells; confocal microscopy 3-4 days after infiltration
T1 sequence: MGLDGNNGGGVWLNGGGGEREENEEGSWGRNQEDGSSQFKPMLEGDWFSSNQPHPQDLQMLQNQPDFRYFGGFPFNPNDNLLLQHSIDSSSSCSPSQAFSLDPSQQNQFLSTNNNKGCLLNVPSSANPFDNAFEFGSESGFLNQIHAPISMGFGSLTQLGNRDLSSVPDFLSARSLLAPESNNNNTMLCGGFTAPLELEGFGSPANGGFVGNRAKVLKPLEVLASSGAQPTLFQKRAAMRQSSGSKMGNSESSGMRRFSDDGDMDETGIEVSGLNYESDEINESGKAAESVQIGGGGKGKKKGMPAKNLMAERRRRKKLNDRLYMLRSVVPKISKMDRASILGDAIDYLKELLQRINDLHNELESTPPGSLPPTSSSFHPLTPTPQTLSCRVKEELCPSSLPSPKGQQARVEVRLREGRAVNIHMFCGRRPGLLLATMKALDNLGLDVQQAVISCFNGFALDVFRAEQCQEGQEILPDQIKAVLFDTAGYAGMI

[2] = target: cYFP-tagged MPK6 (Arabidopsis thaliana) (UniProt Q39026); test: as above
[3] = target: T2, SPCH-cYFP (Arabidopsis thaliana) (UniProt Q700C7); test: as above
T2 sequence: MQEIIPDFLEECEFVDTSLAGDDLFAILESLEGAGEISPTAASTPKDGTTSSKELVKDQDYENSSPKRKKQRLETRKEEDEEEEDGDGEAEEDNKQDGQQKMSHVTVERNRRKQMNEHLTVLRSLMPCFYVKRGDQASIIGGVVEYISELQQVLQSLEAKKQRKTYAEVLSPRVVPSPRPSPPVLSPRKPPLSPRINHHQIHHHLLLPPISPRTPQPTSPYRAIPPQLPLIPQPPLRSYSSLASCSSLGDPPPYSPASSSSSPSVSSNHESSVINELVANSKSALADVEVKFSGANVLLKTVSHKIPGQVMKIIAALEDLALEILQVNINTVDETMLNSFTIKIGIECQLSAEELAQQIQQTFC

[4] = target: MPK6-YFP (Arabidopsis thaliana) (UniProt Q39026); test: co-IP; YFP or MPK6-YFP co-expressed with BSL2-FLAG or BSU1-FLAG in N. benthamiana leaves; total protein extract on GFP-Trap agarose, 4 °C, 3 h; washed three times; detected by anti-FLAG

binding [1]: no binding | binding [2]: binds | binding [3]: no binding
B1: nYFP-tagged BSL2 (enzyme, UniProt Q9SJF0 1-1018)
chain: MDEDSSMVADNDQDREFQSLDGGQSPSPMERETPQQMNDQSPPPEGGSVPTPPPSDPNPATSQQQAAAVVGQEQQPALVVGPRCAPTYSVVDAMMDKKEDGPGPRCGHTLTAVPAVGDEGTPGYIGPRLVLFGGATALEGNSGGTGTPTSAGSAGIRLAGATADVHCYDVLSNKWTRLTPFGEPPTPRAAHVATAVGTMVVIQGGIGPAGLSAEDLHVLDLTQQRPRWHRVVVQGPGPGPRYGHVMALVGQRYLMAIGGNDGKRPLADVWALDTAAKPYEWRKLEPEGEGPPPCMYATASARSDGLLLLCGGRDANSVPLASAYGLAKHRDGRWEWAIAPGVSPSSRYQHAAVFVNARLHVSGGALGGGRMVEDSSSVAVLDTAAGVWCDTKSVVTSPRTGRYSADAAGGDASVELTRRCRHAAAAVGDLIFIYGGLRGGVLLDDLLVAEDLAAAETTYAASHAAAAAATNSPPGRLPGRYGFSDERNRELSESAADGAVVLGSPVAPPVNGDMHTDISPENALLPGTRRTNKGVEYLVEASAAEAEAISATLAAAKARQVNGEVELPDRDCGAEATPSGKPTFSLIKPDSMGSMSVTPAGIRLHHRAVVVAAETGGALGGMVRQLSIDQFENEGRRVSYGTPESATAARKLLDRQMSINSVPKKVIAHLLKPRGWKPPVRRQFFLDCNEIADLCDSAERIFASEPTVLQLKAPIKIFGDLHGQFGDLMRLFDEYGSPSTAGDISYIDYLFLGDYVDRGQHSLETISLLLALKVEYQHNVHLIRGNHEAADINALFGFRIECIERMGERDGIWVWHRINRLFNWLPLAASIEKKIICMHGGIGRSINHVEQIENIQRPITMEAGSIVLMDLLWSDPTENDSVEGLRPNARGPGLVTFGPDRVMEFCNNNDLQLIVRAHECVMDGFERFAQGHLITLFSATNYCGTANNAGAILVLGRDLVVVPKLIHPLPPALSSPETSPERHIEDTWMQELNANRPATPTRGRPQNSNDRGGSLAWM

binding [4]: binds
B2: BSL2-FLAG (enzyme, UniProt Q9SJF0 1-1018)
chain: B1 chain
